From PubChem BioAssay AID360 (National Center for Advancing Translational Sciences (NCATS), 2006)
Screen size: about 48,000 compounds; about 550 (1.1%) were called active. Roughly 4% stayed inconclusive and do not appear here. Rule as the data show it: active = potency below about 15 µM; inconclusive = mostly about 16 µM to 33 µM; inactive = weaker than that. Some of the results follow.

Each compound was assayed against Lysosomal acid glucosylceramidase (Homo sapiens) (UniProt P04062) (assay: Glucocerebrosidase). Settings: purified enzyme, resorufin glucoside fluorescence (screen aimed at inhibitors), 20 min.
Method in brief: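 Compounds titrated against 0.2 nM normal enzyme, 30 uM resorufin beta-D-glucopyranoside substrate, citrate/phosphate buffer with taurocholate and tween-20, pH 5.9. Reaction ran 20 min at room temperature; fluorescence (Ex 548/Em 600) gave AC50.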
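Also: the screen sought inhibitors.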
Potency is read from the fitted curve at half-maximal effect.

UniProt P04062, sequence (P04062 whole entry, looked up): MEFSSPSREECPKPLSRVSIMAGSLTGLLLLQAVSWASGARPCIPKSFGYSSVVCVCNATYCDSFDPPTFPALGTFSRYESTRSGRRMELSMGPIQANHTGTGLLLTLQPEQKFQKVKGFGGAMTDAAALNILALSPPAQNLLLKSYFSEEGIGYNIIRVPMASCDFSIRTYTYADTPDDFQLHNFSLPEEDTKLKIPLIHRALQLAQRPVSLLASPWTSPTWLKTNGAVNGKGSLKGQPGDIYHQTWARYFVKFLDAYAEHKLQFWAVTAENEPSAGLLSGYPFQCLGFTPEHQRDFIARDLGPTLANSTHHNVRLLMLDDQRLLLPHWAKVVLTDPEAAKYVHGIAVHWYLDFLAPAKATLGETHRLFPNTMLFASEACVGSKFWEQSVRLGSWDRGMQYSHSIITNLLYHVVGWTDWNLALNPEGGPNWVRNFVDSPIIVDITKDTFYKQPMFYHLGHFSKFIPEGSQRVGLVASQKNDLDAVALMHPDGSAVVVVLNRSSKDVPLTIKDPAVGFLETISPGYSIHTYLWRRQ

Potency, inactive:
Cc1ccc2cc(C(c3nnnn3C3CCCC3)N3CCN(c4ccccc4)CC3)c(=O)[nH]c2c1 (stereo not drawn)
O=C(c1ccco1)N1CCN(c2ccc(S(=O)(=O)N3CCCC3)cc2)CC1 > 76.9 µM
O=C(c1nc2nc(-c3ccccc3)cc(C(F)(F)F)n2n1)N1CCOCC1 > 76.9 µM
O=C1CC(Sc2nnc(-c3ccccc3)o2)C(=O)N1c1ccccc1 (stereo not drawn) > 76.9 µM
COc1ccc(C(c2nnnn2Cc2ccccc2)N2CCN(C(=O)c3ccco3)CC2)cc1OC (stereo not drawn) > 76.9 µM
CCOC(=O)c1ccccc1NC(=O)Cn1cnc2c(cnn2C(C)(C)C)c1=O > 76.9 µM
O=S(=O)(c1cccc2cccnc12)N1CCc2ccccc21 > 76.9 µM
COc1ccc(NC(=O)C2C(=O)N(CCO)C3(C)CC2c2ccccc2O3)cc1 (stereo not drawn) > 76.9 µM
CC1CCCCC12NC(=O)N(CC(=O)NCCc1ccccn1)C2=O (stereo not drawn) > 76.9 µM
O=C(Nc1ccc2c(c1)OCO2)C(c1ccc(Cl)cc1)N1CCN(C(=O)c2ccco2)CC1 (stereo not drawn) > 76.9 µM
O=C1C2C3C=CC(C3)C2C(=O)N1CN(Cc1ccccc1)CN1C(=O)C2C3C=CC(C3)C2C1=O (stereo not drawn) > 76.9 µM
CCOCC(=O)Nc1cccc(OC)c1 > 76.9 µM
Cc1ccc2oc(=O)cc(CN3CCC(C)CC3)c2c1 > 76.9 µM
COCCN1Cc2cccc(C(=O)Nc3c(C)cc(C)cc3C)c2C1=O > 76.9 µM
CCCCC1CC1C(=O)Nc1ncc2c(n1)CC(C)(C)CC2=O (stereo not drawn) > 76.9 µM
COc1ccc(-c2ccc(OC)cc2C(=O)O)cc1 > 76.9 µM
Cc1cccc(OCC(=O)Nc2cc(C)ccc2O)c1 > 76.9 µM
CCOC(=O)c1c(=O)n(O)c2ccc(C)cc2[n+]1[O-] > 76.9 µM
Cn1c(=O)[nH]c(=O)c2c1nc(SCCN1CCCCC1)n2Cc1ccccc1 > 76.9 µM
CCC1(C)Cc2c(C#N)c(N)n(-c3ccccc3)c(=O)c2CO1 (stereo not drawn) > 76.9 µM
CCOCC(=O)Nc1cccc(NC(C)=O)c1 > 76.9 µM
COc1ccc2nc(C)c(C(=O)OCCN(C)C)cc2c1 > 76.9 µM
Cc1c(C(=O)NCCCN2CCOCC2)sc2nc(-c3ccc(F)cc3)cn12 > 76.9 µM
CCN(CC)S(=O)(=O)c1cc(C(=O)n2cccn2)c(Cl)cc1Cl > 76.9 µM
c1ccc(Cn2c(Nn3cnnc3)nc3ccccc32)cc1 > 76.9 µM
CC(=O)SCCC(=O)Nc1ccccc1 > 76.9 µM
Cc1cc(C)n(CCOc2ccc(Cl)cc2Cl)n1 > 76.9 µM
CCCc1nc2oc3c(NCCOCCO)ncnc3c2c2c1COC(C)(C)C2 > 76.9 µM
CCOC(=O)CC(=O)CSc1nc(-c2cccnc2)cc(C)c1C#N > 76.9 µM
CCc1c(C)nc2ncnn2c1N1CCC(C(=O)Nc2ccccc2)CC1 > 76.9 µM
COC(=O)c1cc2ccsc2n1CC(=O)Nc1ccc(N(C)C)cc1
COc1cc(C(=O)N2CCC(NC(=O)C(Cc3ccccc3)NC(C)=O)CC2)cc(OC)c1OC (stereo not drawn) > 76.9 µM
O=C(c1ccco1)N1CCN(S(=O)(=O)c2cccs2)CC1 > 76.9 µM
Cn1nnnc1SCC(=O)NCc1ccco1 > 76.9 µM
O=C(CSc1ccccc1)Nc1ccccc1N1CCOCC1 > 76.9 µM
CC1Cc2ccccc2N1C(=O)CCN1C(=O)C2C3C=CC(C3)C2C1=O (stereo not drawn) > 76.9 µM
Cc1ccc(C)c(N2CCN(C(=O)C3CCCN(S(=O)(=O)c4c(C)[nH]c(=O)[nH]c4=O)C3)CC2)c1 (stereo not drawn) > 76.9 µM
Cn1c(SCC(=O)O)nnc1C1CCCCC1 > 76.9 µM
CCOCCCNC(=O)c1ccc(CS(=O)(=O)Cc2ccc(C)cc2)o1 > 76.9 µM
COc1ccc(S(=O)(=O)N(C)CC(=O)N2CCC(C(N)=O)CC2)cc1Cl > 76.9 µM
CC(Oc1ccc(Cl)cc1Cl)C(=O)N(Cc1ccco1)C1CCS(=O)(=O)C1 (stereo not drawn) > 76.9 µM
COc1cccc(-c2nc(-c3ccc(NC(=O)Cc4ccccc4OC)cc3)no2)c1 > 76.9 µM
CCCCn1c(SCC(=O)OC)nc2c1c(=O)n(C)c(=O)n2C > 76.9 µM
COc1cc(-c2nn3c(-c4ccccc4)nnc3s2)cc(OC)c1OC > 76.9 µM
CCN(CC)C(=O)CSc1nc2ncccc2[nH]1 > 76.9 µM
O=C1C(C=NCc2ccccn2)=C(O)c2ccccc21 > 76.9 µM
CCn1c(COc2ccccc2OC)nnc1SCC#N > 76.9 µM
CCOC(=O)N1CCC(N(C(=O)Nc2ccc(CC)cc2)C(C)CC)CC1 (stereo not drawn) > 76.9 µM
O=C1c2[nH]nc(-c3ccccc3O)c2C(c2ccc(F)cc2)N1Cc1ccco1 (stereo not drawn)
O=C(NCC(=O)N(c1cccnc1)C(C(=O)NC1CCCCC1)c1cccnc1)c1ccco1 (stereo not drawn) > 76.9 µM
CCOC(=O)c1cc2ccc(OC(=O)c3ccco3)cc2oc1=O > 76.9 µM
CCCN(CCC)S(=O)(=O)c1ccc(C(=O)Nc2nnc(-c3cccc(OC)c3)o2)cc1 > 76.9 µM
Cc1cc(C)cc(NC(=O)CCN2CC(C)OC(C)C2)c1 (stereo not drawn) > 76.9 µM
CCOCc1cc(C2NC(=O)NC(C)=C2C(=O)OCC)ccc1OC (stereo not drawn) > 76.9 µM
Cc1nn(Cc2ccccc2)c(C)c1C(=O)OCC(=O)c1cc(C)n(C2CC2)c1C
CCC(=O)N1CCc2cc(OC)c(OC)cc2C1COc1ccc(C(=O)OC)cc1 (stereo not drawn) > 76.9 µM
CC(=O)NC(CC(=O)NCC(c1ccco1)N(C)C)c1ccccc1 (stereo not drawn) > 76.9 µM
Cc1ccc(C(C)C)c(OCc2nnc(SCC(=O)Nc3ncc(C)s3)n2C)c1 > 76.9 µM
